From PubChem BioAssay AID1159614 (National Center for Advancing Translational Sciences (NCATS), 2016) come the findings set out here.

The whole screen tested about 45,000 compounds, of which about 65 (0.1%) were called active. Calls come from the whole dose curve; as a rule, active = well fitted activation curve with a large enough effect; inconclusive = small, poorly fitted or top-dose-only effect; inactive = no such curve, though single readings can be large or run the other way. This is one part of the list.

For this test, the target named is Galactocerebrosidase (Homo sapiens) (UniProt P54803). The experiment in a line: A Novel Cell-Based Assay to Identify Small Molecules for B -Galactocerebrosidase. Note: 0% is about no effect; nearly all actives have a fitted effect of over 65% in size. Particulars: 145M-Twi-hGALC-G270D cells (Twitcher mouse brain line with human GALC G270D), HMU-beta-Gal fluorescence, 48 h; series mostly up to 57.5 µM; activation: at the top concentration. In outline: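 Live 145M-Twi cells (Twitcher mouse brain-derived, GALC-null) stably expressing human GALC-G270D, with a wild-type GALC line, were compound-treated. Residual GALC activity was then read as fluorescence from 0.1 mM final HMU-β-gal at pH 5.2; higher signal means activation.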
Sequence of UniProt P54803 (P54803 whole entry, looked up): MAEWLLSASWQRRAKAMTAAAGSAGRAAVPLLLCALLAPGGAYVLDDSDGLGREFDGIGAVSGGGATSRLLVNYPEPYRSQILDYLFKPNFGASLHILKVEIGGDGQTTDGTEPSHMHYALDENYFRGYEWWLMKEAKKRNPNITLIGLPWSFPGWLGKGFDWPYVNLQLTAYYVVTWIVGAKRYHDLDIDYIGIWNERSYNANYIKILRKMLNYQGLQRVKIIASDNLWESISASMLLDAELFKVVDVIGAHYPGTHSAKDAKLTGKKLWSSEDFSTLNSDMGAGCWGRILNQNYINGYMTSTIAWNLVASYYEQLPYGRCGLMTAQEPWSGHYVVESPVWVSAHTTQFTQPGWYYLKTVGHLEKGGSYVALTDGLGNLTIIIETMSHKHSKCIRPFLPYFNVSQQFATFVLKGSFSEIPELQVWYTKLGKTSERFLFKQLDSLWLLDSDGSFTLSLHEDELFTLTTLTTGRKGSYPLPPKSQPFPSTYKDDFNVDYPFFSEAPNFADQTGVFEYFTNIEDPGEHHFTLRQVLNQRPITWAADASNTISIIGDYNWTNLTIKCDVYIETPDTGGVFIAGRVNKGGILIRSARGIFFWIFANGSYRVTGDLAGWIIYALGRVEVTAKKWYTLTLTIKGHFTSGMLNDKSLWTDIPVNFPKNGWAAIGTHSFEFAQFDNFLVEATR
For `COc1ccc(-n2ccn3c(CC(C)(C)CC(=O)O)nnc3c2=O)cc1`, the “activation” value was inactive: -10.7%.

As to `CCC(Sc1nc2nccnc2c(=O)n1Cc1ccc(Cl)cc1)C(=O)NC1CCCCC1` (configuration not stated), the “activation” value was inactive: -3.05%.

Consider `COc1cccc(CNc2sc3c(c2C(=O)Nc2ccc(OC)cc2OC)CCC3)c1`, for which the “activation” value is inactive: -15.1%.

With `Cc1ccc(NC(=O)CCCn2c(=O)c3cccn3c3cccnc32)c(C)c1`, the “activation” value is inactive: -6.87%.

With `O=c1c(-c2cc(-c3ccccc3)nc3c2COc2ccc(Cl)cc2-3)coc2ccccc12`, the “activation” value was inactive: -3.25%.

Regarding `CC(=O)c1ccc(NC(=O)CSc2nccn2C2CCCC2)cc1`, the “activation” value is inactive: -7.36%.

`Cc1cccc(N2CCN(c3ccc4cc(S(=O)(=O)N5CCC(C)CC5)ccc4n3)CC2C)c1` (configuration not stated): the “activation” value is inactive: -11.2%.

As to `CC(C)CNC(=O)C(=O)Nc1c2c(nn1-c1ccc(Cl)cc1)CSC2`, the “activation” value was inactive: -0.892%.

Consider `CC1CCN(S(=O)(=O)c2ccc3nc(Nc4cccc(F)c4)ccc3c2)CC1`, for which the “activation” value is inactive: -6.22%.

`Cc1nn(-c2cccc(Cl)c2)c2nc(-c3cccnc3)cc(C(F)(F)F)c12`: the “activation” value was inactive: -9.66%.

Consider `COc1ccc(S(=O)(=O)NC(C)(C)CO)cc1-c1nnc2c3ccccc3c(C)nn12`, for which the “activation” value was inactive: -2.39%.

Turning to `O=c1c(N2CCN(c3ccc(F)cc3)CC2)csc2ccc(F)cc12`, the “activation” value was inactive: -10.6%.

Consider `COc1ccc(CNC(=O)c2cc3cccc4c3n2CC(C)S4)cc1` (configuration not stated), for which the “activation” value was inactive: -15%.

Regarding `CCOc1ccc(NC(=O)CSc2nc3ccccc3nc2N2CCOCC2)cc1`, the “activation” value was inactive: -8.2%.

Consider `CCCn1c(=O)c2sccc2n2c(CCCC(=O)N3CCN(c4ccc(OC)cc4)CC3)nnc12`, for which the “activation” value was inactive: -0.992%.

`CC(C)CC(=O)Nc1cccc(-c2cn3cccnc3n2)c1`: the “activation” value is inactive: -11.3%.

On to `COc1ccc(-c2cc(C(F)(F)F)nc(SCCC(=O)Nc3ccc(F)cc3F)n2)cc1`, for which the “activation” value is inactive: -2.06%.

`CCOCCCNC(=O)CN1C(=O)COc2ccc(S(=O)(=O)N3CCOCC3)cc21`: the “activation” value was inactive: -9.6%.

Consider `O=C(CSc1ccc2nc(-c3ccccc3)cn2n1)Nc1ccccc1`, for which the “activation” value was inactive: -8.15%.

Take `O=C(Nc1ccc(F)cc1F)c1ccc(-n2cnc3cccnc32)cc1`: the “activation” value was inactive: -17.7%.

On to `CC(=O)c1ccc(NC(=O)CSc2nnc3c(n2)[nH]c2ccccc23)cc1`, for which the “activation” value is inactive: -31.2%.

`COc1ccc(CNC(=O)c2cc(-c3ccc(OC)c(OC)c3)nc3n[nH]c(-c4ccc(C)cc4)c23)cc1`: the “activation” value is inactive: -1.46%.

As to `O=C(CCC1N=C2c3ccccc3N=C(SCc3ccc(F)cc3)N2C1=O)N1CCN(c2ccccc2)CC1` (configuration not stated), the “activation” value was inactive: -20.3%.

Consider `Clc1ccc(-c2nc3ncccn3c2Nc2ccc3c(c2)OCCO3)cc1`, for which the “activation” value was inactive: -13%.

On to `CCOC(=O)c1ccc(N2C(=O)c3n[nH]c(-c4cccs4)c3C2c2cccc(O)c2)cc1` (configuration not stated), for which the “activation” value was inactive: -10.8%.

For `COc1ccc(N2CCN(C(=O)CCCCn3c(=O)[nH]c4ccsc4c3=O)CC2)cc1`, the “activation” value is inactive: -1.73%.

As to `N#Cc1c(-n2ncnc2-c2ccccc2Cl)sc2c1CCCCC2`, the “activation” value is inactive: -17.8%.
